In PubChem BioAssay (NCATS) one finds max response and AC50 data, which are given here for six compounds.

Values joined by “and” are separate entries in the source; they are usually repeats but may differ in a detail not shown here. Equal entries are not always repeated. Some of the results follow. The main result of the screen is listed elsewhere. These columns were measured beside it and carry no call. The list favours compounds with an active or inconclusive main result. The note in brackets gives the kind of curve behind each potency; many fits are weak.

The assay can be described thus: qHTS Assay for Lipid Storage Modulators (AID 1519). The note with it: Drosophila S3 cells, BODIPY lipid droplet/cell ratio, laser cytometry, cells loaded with oleic acid. A digest of the protocol: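 Cells seeded at 5,000 per well were treated with compounds over a concentration series and loaded with oleic acid (400 uM, as added). Lipid droplet fluorescence (488 nm excitation, 500-530 nm channel) was read by laser-scanning cytometry and normalized to 20 uM Triacsin C.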

Where [1] appears, read: measured here: cell count channel max response.
The mark [2] stands for this setting: measured here: cell number channel AC50.
Where [3] appears, read: measured here: lipid (BODIPY) channel AC50.
[4] abbreviates: measured here: lipid channel max response.
Tags give direction and shape of the fitted curve.

For orientation: AC50 means the concentration giving half of the maximal activity seen. Take `Cc1nc2cnc(Oc3ccccc3)nc2n(CCc2ccccc2)c1=O`: the max response came to 17.9% under setting [1] and 24.7% under setting [4]. The AC50 is 39.8 nM [rising, partial curve] under setting [2] and 39.8 nM [rising, full curve] under setting [3].
As for `COc1ccc(CNc2nc(-c3c(C)noc3C)nc3ccccc23)c(OC)c1`, the max response runs as follows: under setting [1], 4.79%; under setting [4], 9.79%. Besides, the AC50 under setting [2] was 3550 nM [rising, partial curve, poor fit] and the AC50 under setting [3] was 2820 nM [rising, partial curve, poor fit].
As for `O=[N+]([O-])c1cccc2c(Br)[nH]nc12`, the max response was 67.1% and 23.7% and -4.02% under setting [1]; 92.4% and 43.7% and -0.292% under setting [4]. In addition, the AC50 was 14.1 µM [rising, partial curve, poor fit] and 1.26 µM [falling, full curve] under setting [2]; 25.1 µM [rising, partial curve, poor fit] and 25.1 µM [rising, single point] and 1.26 µM [falling, full curve] under setting [3].
As to `N#CCCn1c(=O)c(-c2ccccc2)nc2cnc(Oc3ccccc3)nc21`, the max response under setting [1] is 19.9% and the max response under setting [4] was 31.9%. Besides, the AC50 under setting [2] was 5010 nM [rising, partial curve, poor fit] and the concentration at half-maximal activity (AC50) under setting [3] is 22.4 nM [rising, full curve].
Take `COc1ccc(-c2nc3cnc(OC)nc3n(CCc3ccccc3)c2=O)cc1`: the max response reads like this: under setting [1], 21.4%; under setting [4], 24.6%. The AC50 is, setting by setting: under setting [2], 63.1 nM [rising, full curve, poor fit]; under setting [3], 63.1 nM [rising, full curve].
Consider `CN(Cc1ccco1)c1nc(-c2ccccc2C(F)(F)F)nc2ccccc12`, for which the max response came to 37.1% under setting [1] and 43.1% under setting [4]. The AC50 is 3160 nM [rising, full curve, poor fit] under setting [2] and 2820 nM [rising, full curve] under setting [3].
